Measurements as given in PubChem BioAssay (Tox21).
Several values for one entry are separate records, joined by “and”; a condition that tells them apart may be missing. Equal values may be shown once. The shares of active, inactive and inconclusive entries below differ from those in the screen. Where the call is inconclusive, the potency comes from a doubtful curve fit. A structure can be active in one record and inactive in another. Activity calls are given as the source filed them. Unless noted, the call rests on the fitted dose curve; in most records, active means well fitted curve in the direction sought with a large enough effect in the repeat runs; inconclusive means weak or mixed curves; inactive means no such curve, though single readings can be large; an effect the other way counts as inactive or inconclusive.

Columns and labels:
[1] = qHTS assay to identify small molecule antagonists of the sonic hedgehog signaling (Shh) pathway (AID 1259369; calls by dose curve; further: nearly all actives have a fitted effect of over 45% in size; on activity change, negative = inhibition: on the % scale 0 is the no-effect control and ±100 the full control effect)
Summary of the method: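 Inhibition of Shh signalling is measured as reduced Gli1-response-element firefly luciferase output in an NIH/3T3-derived stable reporter clone stimulated with conditioned medium for 24hr.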

[2] = qHTS assay to identify small molecule agonists of the androgen receptor (AR) signaling pathway in the presence of an antagonist - cell viability counter screen (AID 1259379); further: nearly all actives have a fitted effect of over 25% in size
Summary of the method: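 Fluorescence from CellTiter-Fluor, added after 15 hr and read 1 hr later, gave cell viability. Cells were MDA-kb2 exposed to compounds (15 concentrations) in the presence of 3.0uM nilutamide at 37C, 0% CO2.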

[3] = qHTS assay to identify small molecule agonists of the estrogen receptor beta (ER-beta) signaling pathway - cell viability counter screen (AID 1259380); further: nearly all actives have a fitted effect of over 30% in size
Summary of the method: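 Same-well viability counter screen. Cells: ER-beta-UAS-bla HEK293T, plated 6 hr before compound, in 2% charcoal-stripped FBS. Compound exposure 16 hr, 37C; viability by CellTiter-Glo luminescence after 30 min at room temperature.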

[4] = target: Progesterone receptor (Homo sapiens) (UniProt P06401); test: qHTS assay to identify small molecule antagonists of the progesterone receptor (PR) signaling pathway (AID 1346795; active means well fitted inhibition curve with a large enough effect in the signal ratio in the repeat runs, not every such curve was filed as active; inconclusive means weak or mixed curves; the % refers to the signal ratio; on activity change, negative = inhibition: on the % scale 0 is the no-effect control and ±100 the full control effect); settings: PR-UAS-bla HEK293T, beta-lactamase FRET ratio, 16 h; activity change, negative = inhibition: at 92.4 µM (top of the series) unless noted
Sequence of UniProt P06401 (P06401 whole entry, looked up): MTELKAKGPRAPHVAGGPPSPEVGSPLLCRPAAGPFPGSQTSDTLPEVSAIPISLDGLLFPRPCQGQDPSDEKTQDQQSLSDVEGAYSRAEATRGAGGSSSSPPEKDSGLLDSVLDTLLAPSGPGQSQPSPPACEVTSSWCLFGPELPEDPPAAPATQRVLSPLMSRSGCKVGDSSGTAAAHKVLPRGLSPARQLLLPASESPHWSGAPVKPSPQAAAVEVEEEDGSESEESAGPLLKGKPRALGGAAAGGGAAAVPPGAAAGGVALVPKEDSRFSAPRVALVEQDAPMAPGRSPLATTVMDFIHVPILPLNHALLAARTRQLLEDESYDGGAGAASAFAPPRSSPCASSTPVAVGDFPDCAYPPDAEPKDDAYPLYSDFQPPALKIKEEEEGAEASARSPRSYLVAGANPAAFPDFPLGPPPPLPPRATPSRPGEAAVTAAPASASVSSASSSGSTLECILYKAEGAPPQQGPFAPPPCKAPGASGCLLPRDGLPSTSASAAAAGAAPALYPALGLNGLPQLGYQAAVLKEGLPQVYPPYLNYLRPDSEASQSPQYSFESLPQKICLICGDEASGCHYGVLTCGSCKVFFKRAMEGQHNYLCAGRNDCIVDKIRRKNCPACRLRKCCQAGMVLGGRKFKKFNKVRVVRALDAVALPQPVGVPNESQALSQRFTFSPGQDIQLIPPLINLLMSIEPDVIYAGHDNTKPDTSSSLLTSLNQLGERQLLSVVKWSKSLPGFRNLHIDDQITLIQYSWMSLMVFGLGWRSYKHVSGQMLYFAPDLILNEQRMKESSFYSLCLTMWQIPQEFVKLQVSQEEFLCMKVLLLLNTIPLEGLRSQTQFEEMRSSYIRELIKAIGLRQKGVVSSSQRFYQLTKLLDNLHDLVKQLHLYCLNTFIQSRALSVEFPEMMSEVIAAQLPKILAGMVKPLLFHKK
Summary of the method: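 Fluorescence intensity measured 2 hr after adding beta-lactamase FRET substrate to PR-UAS-bla HEK293T cells that had been co-treated 16 hr with compound and 1 nM R5020 (final concentration) in 2% charcoal-stripped FBS.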

[5] = qHTS assay to identify small molecule agonists of the progesterone receptor (PR) signaling pathway - cell viability counter screen (AID 1346799; calls by dose curve; further: nearly all actives have a fitted effect of over 45% in size)
Summary of the method: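 In parallel with the beta-lactamase readout, cytotoxicity toward PR-UAS-bla HEK293T cells was measured by CellTiter-Glo luminescence following 16 hr compound incubation in 2% charcoal-stripped FBS medium.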

[6] = target: Progesterone receptor (Homo sapiens) (UniProt P06401); test: qHTS assay to identify small molecule agonists of the progesterone receptor (PR) signaling pathway (AID 1346784; calls by dose curve; further: nearly all actives have a fitted effect of over 30% in size; on activation: on the % scale 0 is the no-effect control and ±100 the full control effect); settings: PR-UAS-bla HEK293T, beta-lactamase FRET ratio, 16 h; activation: at 92.4 µM (top of the series) unless noted
Summary of the method: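 Fluorescence from LiveBLAzer B/G FRET substrate cleavage (2 hr, RT) reported PR activation in PR-UAS-bla HEK 293T cells treated 16 hr at 37C/5% CO2 with compounds; medium contained 2% charcoal-stripped FBS.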

[7] = target: Estrogen receptor beta (Homo sapiens) (UniProt Q92731); test: qHTS assay to identify small molecule antagonists of the estrogen receptor beta (ER-beta) signaling pathway (AID 1259378; active means well fitted inhibition curve with a large enough effect in the signal ratio in the repeat runs, not every such curve was filed as active; inconclusive means weak or mixed curves, or effect the other way; inactive means no such curve, though single readings can be large or run the other way; the % refers to the signal ratio; on activity, negative = inhibition: on the % scale 0 is the no-effect control and ±100 the full control effect); settings: ER-beta-UAS-bla HEK293T, beta-lactamase FRET ratio, 16 h; activity, negative = inhibition: at 92.4 µM (top of the series) unless noted
Sequence of UniProt Q92731 (Q92731 whole entry, looked up): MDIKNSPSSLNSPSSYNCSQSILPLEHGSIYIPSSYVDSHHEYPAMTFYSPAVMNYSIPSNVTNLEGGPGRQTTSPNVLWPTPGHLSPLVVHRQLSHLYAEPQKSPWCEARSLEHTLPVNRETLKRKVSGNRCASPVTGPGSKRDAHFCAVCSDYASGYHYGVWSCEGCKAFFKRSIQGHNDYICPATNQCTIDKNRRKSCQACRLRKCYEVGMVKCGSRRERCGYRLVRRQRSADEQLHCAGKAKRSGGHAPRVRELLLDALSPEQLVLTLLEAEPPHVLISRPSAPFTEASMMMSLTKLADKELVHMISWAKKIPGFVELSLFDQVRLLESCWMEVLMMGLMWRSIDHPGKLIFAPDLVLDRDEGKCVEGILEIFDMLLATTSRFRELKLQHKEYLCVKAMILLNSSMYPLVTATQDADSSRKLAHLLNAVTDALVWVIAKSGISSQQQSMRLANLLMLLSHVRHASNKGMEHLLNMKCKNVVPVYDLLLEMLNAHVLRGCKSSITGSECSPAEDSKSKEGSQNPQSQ
Summary of the method: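 Antagonist mode: compounds added to beta-lactamase reporter HEK293T ER-beta-UAS cells stimulated with E2 (1nM final), 16 hr at 37C. LiveBLAzer B/G FRET substrate, 2 hours room temperature, fluorescence read-out.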

[8] = qHTS assay to identify small molecule antagonists of the progesterone receptor (PR) signaling pathway - cell viability counter screen (AID 1346798); further: nearly all actives have a fitted effect of over 50% in size
Summary of the method: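 CellTiter-Glo luminescence; PR-UAS-bla HEK293T, 3,000 cells/well; compound + R5020, 16 hr, 37C/5% CO2; 30 min RT before read.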

[9] = qHTS assay to identify small molecule antagonists of the estrogen receptor beta (ER-beta) signaling pathway - cell viability counter screen (AID 1259382); further: nearly all actives have a fitted effect of over 55% in size
Summary of the method: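 Following a 6 hr plating period, HEK293T cells carrying a UAS-driven beta-lactamase reporter under ER-beta control received compounds and 1nM E2 (final). After 16 hr at 37C and 2 hr substrate loading, CellTiter-Glo luminescence indicated viability.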

[10] = qHTS assay to identify small molecule agonists of the estrogen receptor alpha (ER-alpha) signaling pathway in the presence of an antagonist - cell viability counter screen (AID 1259386);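 further: cells exposed to compounds for 22 h at 37 °C before the viability read; nearly all actives have a fitted effect of over 30% in size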
Summary of the method: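 Cells are starved of estrogens for 5 days in charcoal-stripped serum, seeded for 24hr and co-treated with ICI-182,780 (10.0nM final) and test compounds. After 22hr at 37C, viability is read as CellTiter-Fluor fluorescence.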

[11] = qHTS assay to identify small molecule antagonists of the TGF-beta/Smad signaling pathway - cell viability counter screen (AID 1346824); further: nearly all actives have a fitted effect of over 50% in size
Summary of the method: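 Cytotoxicity counter-screen run in the same wells as the beta-lactamase Smad reporter read: CellTiter-Glo luminescence after 30 min at room temperature. HEK 293T SBE-bla cells had 5 hr compound exposure at 37 C with TGF-beta1 (0.25 ng/mL stock).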
Potency means the concentration at half of the fitted maximal effect; tags describe the fitted curve by direction and shape or compound fluorescence and quenching.

SMILES: COP(=O)(OC)OC
- Potency [1]: inconclusive: 11 µM [inhibitor, full curve]
- Potency [2]: inconclusive: 54.9 µM [cytotoxic, partial curve]
- Potency [3]: inconclusive: 69.1 µM [cytotoxic, single point]
- activity change, negative = inhibition [4]: inconclusive: -30.1%
- Potency [5]: inactive

SMILES: Cl/C=C/CCl
- Potency [1]: inconclusive: 5.48 µM [inhibitor, single point]
- Potency [3]: inactive
- Potency [6]: inactive
- activity change, negative = inhibition [4]: inconclusive: 7.34%

SMILES: CC(C)N(C(=O)SCC(Cl)=C(Cl)Cl)C(C)C
- Potency [1]: inconclusive: 61.1 µM [inhibitor, single point]
- Potency [3]: inconclusive: 67.7 µM [cytotoxic, single point]
- activity change, negative = inhibition [4]: inconclusive: 0.0928%

SMILES: CCCN(CCC)c1c([N+](=O)[O-])cc(S(C)(=O)=O)cc1[N+](=O)[O-]
- Potency [1]: inconclusive: 68.6 µM [inhibitor, single point]
- Potency [7]: inconclusive: 38.6 µM [inhibitor, partial curve]
- Potency [4]: inconclusive: 19.3 µM [falling, partial curve]
- Potency [5]: inactive

SMILES: C=CCc1cc(OC)c2c(c1)OCO2
- Potency [1]: inactive
- Potency [7]: inactive
- activity change, negative = inhibition [4]: inconclusive: 12.6%

SMILES: C/C=C/C=O
- Potency [1]: inactive
- Potency [3]: inconclusive: 65.5 µM [cytotoxic, single point]

SMILES: CN1C(=O)CN=C(c2ccccc2)c2cc(Cl)ccc21
- Potency [1]: inconclusive: 5.96 µM [inhibitor, full curve, poor fit]
- Potency [3]: inactive
- Potency [6]: inconclusive: 24.7 µM [rising, partial curve, poor fit]
- Potency [4]: inconclusive: 69.6 µM
- activity change, negative = inhibition [4]: inconclusive: -15.6% [at 42.5 µM]
- Potency [8]: inconclusive: 15.6 µM [cytotoxic, single point]
- Potency [5]: active: 27.7 µM and inactive

SMILES: c1cc2c3c(cccc3c1)CC2
- Potency [1]: inconclusive: 68.6 µM [inhibitor]
- activity, negative = inhibition [7]: inconclusive: 26.8%
- activity change, negative = inhibition [4]: inconclusive: -24.9%

SMILES: CN(N=O)c1ccc([N+](=O)[O-])cc1
- Potency [1]: inactive
- Potency [2]: inconclusive: 54.5 µM [cytotoxic, partial curve, poor fit]
- Potency [3]: inactive
- Potency [9]: inactive
- Potency [10]: inconclusive: 54.5 µM [cytotoxic, single point]

SMILES: CCCCCCCCn1cc[n+](C)c1
- Potency [1]: inconclusive: 217 nM [inhibitor, full curve] and inconclusive: 123 nM [inhibitor, full curve]
- Potency [3]: inconclusive: 15.3 µM [cytotoxic, full curve] [middle of 4 runs]
- Potency [9]: inconclusive: 4.91 µM [cytotoxic, partial curve, poor fit]
- Potency [10]: inconclusive: 49 µM [cytotoxic, partial curve] [middle of 4 runs]
- Potency [6]: inconclusive: 61.1 µM [falling, partial curve, poor fit]
- activity change, negative = inhibition [4]: inconclusive: -14.2%
- Potency [11]: inconclusive: 2.19 µM [cytotoxic, partial curve, poor fit] and inconclusive: 4.41 µM [cytotoxic, single point]

SMILES: COC(=O)N(C(=O)N1CO[C@@]2(C(=O)OC)Cc3cc(Cl)ccc3C2=N1)c1ccc(OC(F)(F)F)cc1
- Potency [1]: inconclusive: 6.63 µM [inhibitor, full curve]
- Potency [7]: inconclusive: 41.8 µM [cytotoxic, partial curve, poor fit]
- Potency [6]: inconclusive: 52.7 µM
- Potency [4]: inconclusive: 5.91 µM [falling, full curve]
- Potency [8]: inconclusive: 10.5 µM [rising, full curve]
- Potency [5]: inconclusive: 10.5 µM [rising, full curve]

SMILES: CCC(=O)Nc1ccc(Cl)c(Cl)c1
- Potency [1]: inconclusive: 55.6 µM [inhibitor, partial curve] and inconclusive: 30.6 µM [inhibitor, partial curve]
- Potency [3]: inconclusive: 124 µM [cytotoxic, partial curve, poor fit] and inconclusive: 34.4 µM [cytotoxic, full curve]
- Potency [6]: inconclusive: 0.556 µM [activator, full curve]
- Potency [4]: inconclusive: 48.6 µM [partial curve]
- activity change, negative = inhibition [4]: inconclusive: -49.5%
- Potency [5]: inconclusive: 22.1 µM [rising, single point]

SMILES: CC(C)CCCCCOC(=O)c1ccccc1C(=O)OCCCCCC(C)C
- Potency [1]: active: 17 µM
- Potency [3]: inconclusive: 27 µM [cytotoxic, single point]
- Potency [10]: inactive
- Potency [11]: inactive
